Measured values reported in a compilation of properties of binary mixtures (doi:10.1016/j.fluid.2019.112324).
The densities may have been worked out from excess volumes.

Assay: xn = mol fraction of the nth substance listed
Details: 100 kPa

CCCCCC[n+]1ccn(C)c1.O=[N+]([O-])[O-] + CCCC(C)O
mass density [kg/m3]
Details | 293.15 K | 298.15 K | 303.15 K | 308.15 K | 313.15 K | 318.15 K | 323.15 K
x1 = 0.0814 | 856 | 851.8 | – | 843.2 | – | 834 | –
x1 = 0.1609 | 895.7 | – | 886.9 | 882.5 | 877.6 | 872.8 | 868
x1 = 0.2408 | – | 926.1 | 921.6 | 917 | 912.1 | 907.3 | 902.5
x1 = 0.3491 | 971.2 | 966.8 | 962.2 | 957.7 | 952.9 | 948.2 | 943.5
x1 = 0.4393 | 1000.4 | 996.1 | 991.7 | 987.2 | 982.5 | 977.9 | 973.3
x1 = 0.5608 | 1034.5 | 1030.4 | 1026.1 | 1021.8 | 1017.2 | 1012.9 | 1008.5
x1 = 0.6509 | 1056.6 | 1052.7 | 1048.5 | 1044.3 | 1039.9 | 1035.7 | –
x1 = 0.7401 | – | 1072.3 | – | – | 1060 | 1056 | 1052
x1 = 0.8508 | – | 1093.5 | 1089.7 | 1086 | 1082.1 | 1078.5 | 1074.8
x1 = 0.9393 | 1111.5 | 1108.4 | 1104.9 | 1101.4 | 1097.9 | 1094.6 | 1091.2
x1 = 1 | 1120.3 | 1117.5 | 1114.3 | 1111.1 | 1107.8 | 1104.7 | –

CCCC(C)O (configuration not stated) + CCCCCC[n+]1ccn(C)c1.O=[N+]([O-])[O-]
x2 = 0
Details | mass density [kg/m3]
293.15 K | 809.3
298.15 K | 805.3
303.15 K | 801.2
308.15 K | 797
313.15 K | 792.7
318.15 K | 788.4
